According to the antibiotic and cytotoxicity screens of Wong et al. (2023):
Some of the results follow.

Legend:
HSkMC = human skeletal muscle cells; experiment: cytotoxicity call (relative viability < 0.9); conditions: 10 µM
HepG2 = experiment: cytotoxicity call (relative viability < 0.9); conditions: 10 µM
S. aureus RN4220 = experiment: growth inhibition call (relative growth <= 0.2); conditions: 50 µM

SMILES	cytotoxicity call (HSkMC)	cytotoxicity call (HepG2)	growth inhibition call (S. aureus RN4220)
COC1C=CC23c4cc5c(cc4CN(CC2O)C3C1)OCO5 (stereo not drawn)	inactive	inactive	inactive
C[C@@H]1CN([C@H](C)CO)C(=O)c2cc(NC(=O)Nc3ccc4c(c3)OCO4)ccc2O[C@@H](C)CCCCO[C@@H]1CN(C)C(=O)Cc1ccccc1	inactive	inactive	inactive
C[C@H]1CN([C@@H](C)CO)C(=O)c2cc(C#CC3CC3)cnc2O[C@@H]1CN(C)S(=O)(=O)c1cccc(F)c1	inactive	inactive	inactive
C[C@H](CO)N1C[C@H](C)[C@@H](CN(C)C(=O)Nc2ccc(F)cc2)Oc2c(NC(=O)Nc3ccc(C(F)(F)F)cc3)cccc2C1=O	inactive	inactive	inactive
CO[C@@H]1CN(C)C(=O)c2cc(NS(C)(=O)=O)ccc2OC[C@@H](C)N(C(=O)C2CCOCC2)C[C@H]1C	inactive	inactive	inactive
C[C@H]1CN([C@@H](C)CO)C(=O)c2cc(NC(=O)C3CC3)ccc2O[C@@H]1CN(C)C(=O)Nc1ccc2c(c1)OCO2	inactive	inactive	inactive
C[C@@H]1CN([C@@H](C)CO)C(=O)c2cccc(NS(=O)(=O)c3ccccc3)c2O[C@@H]1CN(C)CC1CC1	inactive	inactive	inactive
COc1ccccc1CN(C)C[C@@H]1OCc2ccccc2-c2c(n(C)c3ccccc23)C(=O)N([C@@H](C)CO)C[C@H]1C	inactive	inactive	inactive
COc1ccc(NC(=O)Nc2cccc3c2O[C@H](CN(C)S(=O)(=O)c2cn(C)cn2)[C@H](C)CN([C@@H](C)CO)C3=O)cc1	inactive	inactive	inactive
C[C@@H]1CN([C@H](C)CO)C(=O)c2cc(NS(=O)(=O)c3ccccc3)ccc2O[C@@H]1CN(C)Cc1ccc(Cl)c(Cl)c1	inactive	active	inactive
N#Cc1cccnc1Oc1ccccc1	inactive	inactive	inactive
C[C@H]1[C@H]([Si](C)(C)F)[C@@H](CCn2cc([C@H](O)c3ccccc3)nn2)O[C@]12C(=O)N(c1ccccc1)c1ccccc12	inactive	inactive	inactive
CCc1nc2c(OCC(=O)c3ccc(Cl)cc3Cl)cccn2c1N(C)C(=O)COc1ccccc1	inactive	active	inactive
O=C(C[C@H]1C[C@@H]2c3cc(NS(=O)(=O)c4ccc(F)cc4)ccc3O[C@@H]2[C@H](CO)O1)NCCc1ccccc1	inactive	inactive	inactive
COc1cccc(S(=O)(=O)N(C)C[C@@H]2OCc3cnnn3CCCC(=O)N([C@@H](C)CO)C[C@H]2C)c1	inactive	inactive	inactive
N=C1NC(=O)CS1	inactive	inactive	inactive
COc1ccc2c3c(n(c2c1)C)[C@@H](CO)N(CC1CCOCC1)C[C@]13CN(C1)C(=O)c1cccc(c1)F	inactive	inactive	inactive
CCCC(C(=O)OCCN(CC)CC)(c1ccccc1)c1ccccc1.Cl	inactive	active	inactive
CCCC(=O)Nc1ccc2c(c1)C(=O)N(C)C[C@H](OC)[C@@H](C)CN(Cc1ccc(-c3ccccn3)cc1)[C@@H](C)CO2	inactive	inactive	inactive
O=C(N[C@H]1CC[C@H](CC(=O)N2CCOCC2)O[C@@H]1CO)c1ccc2c(c1)OCO2	inactive	inactive	inactive
C[C@@H]1CN([C@H](C)CO)C(=O)Cc2cc(NS(=O)(=O)c3cccs3)ccc2O[C@H]1CN(C)Cc1ccncc1	inactive	inactive	inactive
C[C@@H]1CCCCO[C@@H](CN(C)C(=O)c2ccncc2)[C@@H](C)CN([C@H](C)CO)C(=O)c2cc(NS(=O)(=O)c3cn(C)cn3)ccc2O1	inactive	inactive	inactive
C[C@@H]1CN([C@H](C)CO)C(=O)c2cc(NC(=O)Cc3cn(C)c4ccccc34)ccc2O[C@@H]1CN(C)S(C)(=O)=O	inactive	inactive	inactive
CC(C)NC(=O)N(C)C[C@@H]1Oc2ccc(NC(=O)NC3CCCCC3)cc2C(=O)N([C@H](C)CO)C[C@H]1C	inactive	inactive	inactive
COc1ccc(NC(=O)Nc2ccc3c(c2)C(=O)N([C@H](C)CO)C[C@@H](C)[C@H](CN(C)C(=O)Nc2ccc(F)cc2)OCCCC[C@@H](C)O3)cc1	inactive	inactive	inactive
C[C@@H]1CCCCO[C@H](CN(C)C(=O)c2ccccc2)[C@@H](C)CN([C@@H](C)CO)C(=O)c2cc(NC(=O)NC3CCCCC3)ccc2O1	inactive	inactive	inactive
